Test results: PubChem BioAssay AID686978 (National Center for Advancing Translational Sciences (NCATS), 2013)
Hit rate of the full screen: of about 420,000 compounds, about 64,000 (15%) were called active. Inconclusive means that the source gave no clear call. Such entries were picked first, then a sample of the others. The call rests on the fitted dose curve; in most records, active means well fitted inhibition curve with a large enough effect; inconclusive means small, poorly fitted or top-dose-only effect; inactive means flat fitted curve, though single readings scatter. No potency is given beside an inconclusive call; the fits are too rough. A structure can be active in one record and inactive in another.
Potency means the concentration at half of the fitted maximal effect; tags describe the fitted curve by direction and shape.

Experiment: qHTS for Inhibitors of human tyrosyl-DNA phosphodiesterase 1 (TDP1): qHTS in cells in absence of CPT; further: nearly all actives have a fitted effect of over 55% in size
Details: DT40 Tdp1-/- hTDP1 cells, no CPT, ATP luminescence, 48 h; series mostly up to 46.2 µM
Summary of the method: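 Cells were dispensed at 400 per well, compounds added by pin tool, plates incubated ≥48 hr at 37 °C, then CellTiter-Glo added for 30 min at room temperature before luminescence reading. Line: DT40 Tdp1-/- complemented with hTDP1; camptothecin omitted.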
In the case of `CCN1CCN(c2ccc(S(=O)(=O)N3CCOCC3)cc2NC(=O)/C=C/c2ccc([N+](=O)[O-])cc2)CC1`, the Potency is reported as active: 2.91 µM. For `CCCC(=O)Nc1nc(-c2ccccc2)ns1`, the Potency was inconclusive [inhibitor, partial curve]. In the case of `O=C(CCc1nc2ccccc2s1)N1CCOc2ccc(CN3CCc4sccc4C3)cc2C1`, the Potency is reported as inconclusive [inhibitor, partial curve, poor fit]. In the case of `CCOc1ccc(NC(=O)COC(=O)C2CC2C)cc1` (stereo unspecified), the Potency is reported as active: 18.4 µM. For `CC(=O)N1c2ccccc2C(=O)C1N1CCN(c2ccc(F)cc2)CC1` (stereo unspecified), the Potency was active: 14.6 µM. For `O=C(Nc1ccccc1F)Nc1cccnc1Cl`, the Potency was inconclusive [inhibitor, partial curve, poor fit]. With `O=C1C(=O)c2cccnc2-c2ncccc21` the Potency was active: 0.0052 µM. In the case of `O=C(CSc1nc2cc(Cl)ccc2s1)N1CCN(C(=O)c2ccco2)CC1`, the Potency is reported as inconclusive [inhibitor, single point]. For `Cc1ccc(CSC2=NCCN2S(=O)(=O)c2ccc(F)cc2)cc1`, the Potency was inconclusive [inhibitor, single point]. In the case of `Nc1[nH]c(C(=O)c2ccccc2)c(-c2c(F)cccc2F)c1C(=O)c1ccc(Cl)c(Cl)c1`, the Potency is reported as inconclusive [inhibitor, single point]. For `Cc1ccc2sc(N(CCCN(C)C)C(=O)CN3C(=O)c4ccccc4C3=O)nc2c1C`, the Potency was active: 20.6 µM. For `Cc1cccc(C(=O)N[C@H](C(=O)NCc2cccs2)C(C)C)c1`, the Potency was inconclusive [inhibitor, partial curve, poor fit]. With `CN(C(=O)Cn1cnc([N+](=O)[O-])n1)C1CCCCC1` the Potency was “inactive”. In the case of `N#CCC(=O)NCC1(c2ccccc2)CCCC1`, the Potency is reported as “inactive”. For `CO[C@@H]1[C@@H](OC(N)=O)[C@@H](O)C(Oc2ccc3c(O)c(NC(=O)c4ccc(O)c(CC=C(C)C)c4)c(=O)oc3c2C)OC1(C)C` (stereo partly specified), the Potency was “inactive”. With `COc1cc(=O)n2c(c1C(=O)NCc1ccc3c(c1)OCO3)CCN(C(=O)c1ccc(C)cc1)CC2` the Potency was “inactive”. In the case of `CCC(C)NC(=O)CSc1nc2scc(-c3ccccc3)c2c(=O)[nH]1` (stereo unspecified), the Potency is reported as “inactive”. For `Cc1ccc(N(CC(=O)NC2CCCCC2)S(=O)(=O)c2cccs2)cc1`, the Potency was “inactive”. For `COc1cc(C(C)=O)ccc1Oc1ncnc2c1cnn2-c1ccccc1`, the Potency was inconclusive [inhibitor, single point]. For `C[C@@H]1CC=C[C@H]2[C@H]1C(=O)N(Cc1ccccc1)[C@H]2c1cccc([N+](=O)[O-])c1`, the Potency was active: 23.1 µM. In the case of `Cc1nc(SC(C(=O)c2ccccc2)c2ccccc2)nc2ccccc12` (stereo unspecified), the Potency is reported as inconclusive [inhibitor, single point]. With `Cc1ccc(OCC(=O)Nc2cccc(-c3nnc(-c4ccccc4)o3)c2)c(C)c1` the Potency was active: 11.6 µM. For `COc1ccc(NC(=O)c2ccc(CNS(=O)(=O)c3ccc4c(c3)C(C)(C)C(=O)N4C)cc2)cc1`, the Potency was inconclusive [inhibitor, partial curve]. In the case of `COCCNC(=O)C1(C)CCCN(C(=O)c2cc(C)oc2C)C1` (stereo unspecified), the Potency is reported as “inactive”. For `CC(C)(C)N/N=C/c1cc(Cl)cc([N+](=O)[O-])c1O`, the Potency was inconclusive [inhibitor, single point]. In the case of `COc1ccc(CNC(=O)C2(C)Cc3c(-c4ccc5c(c4)OCO5)ccnc3O2)cc1OC` (stereo unspecified), the Potency is reported as active: 16.4 µM. In the case of `Cc1ccc(N2C(=O)NC(C(F)(F)F)(C(F)(F)F)C3=C2CC(C)(C)CC3=O)cc1`, the Potency is reported as inconclusive [inhibitor, full curve, poor fit]. For `COc1ccc([N+](=O)[O-])cc1NCC(=O)Nc1cc(S(=O)(=O)N2CCCCC2)ccc1C`, the Potency was active: 23.1 µM. In the case of `CC(C)OCCCNC(=O)CN1C(=O)CSc2ccc(S(=O)(=O)N3CCCCC3)cc21`, the Potency is reported as inconclusive [inhibitor, single point]. With `Cc1c(C)n(Cc2ccccc2)c2ccc(C(=O)NCCc3ccccc3Cl)cc12` the Potency was inconclusive [inhibitor, single point]. In the case of `CCCNC(=O)COC(=O)c1cccnc1Nc1ccccc1F`, the Potency is reported as active: 16.4 µM. With `COCC1=C(C(=O)OC(C)OC(=O)OC(C)C)N2C(=O)[C@@H](NC(=O)/C(=N\OC)c3csc(N)n3)[C@H]2SC1` (stereo partly specified) the Potency was active: 1.33 µM. With `COc1cccc(CNC(=O)C2CCCN(c3ncnc4onc(-c5ccc(F)cc5)c34)C2)c1` (stereo unspecified) the Potency was inconclusive [inhibitor, single point]. With `Cc1ccccc1CCNC(=O)C1CCN(S(=O)(=O)c2ccc(-n3cnnn3)cc2)CC1` the Potency was inconclusive [inhibitor, partial curve]. With `C=C1CCN([C@H](C(=O)Nc2ccc(OC)cc2)C(C)C)S(=O)(=O)c2ccccc21` the Potency was inconclusive [inhibitor, single point]. In the case of `CSc1ccc(Cn2c(C)c(C(=O)NCc3ccccc3C(F)(F)F)sc2=O)cc1`, the Potency is reported as inconclusive [inhibitor, single point]. With `CCc1ccc(-c2nn(Cc3ccccc3)cc2C(=O)NCC2CCCO2)cc1` (stereo unspecified) the Potency was “inactive”. With `CC(C)Oc1ccc(CNC(=O)CCn2c(=O)c3cccn3c3ccc(F)cc32)cc1` the Potency was inconclusive [inhibitor, partial curve]. With `O=C(Nc1ccc2c(c1)N(C1CCCC1)C(=O)c1ccccc1S2)c1cccc(F)c1` the Potency was active: 18.4 µM. In the case of `COc1cccc(-n2c(=O)c3c(C)c(C(=O)N(C)C)sc3n(CC(=O)Nc3ccc(C)cc3Cl)c2=O)c1`, the Potency is reported as inconclusive [inhibitor, single point]. For `CCCCCN(C(=O)CCC(=O)OCc1cccc(Br)c1)c1c(N)n(CCCC)c(=O)[nH]c1=O`, the Potency was active: 14.6 µM. In the case of `CC(=O)c1c(NC(=O)c2ccccc2)[nH]c(-c2ccccc2)nc1=S`, the Potency is reported as active: 23.1 µM. With `CCCNC(=O)C1(C)CCN1C(=O)Cc1ccc(C(C)(C)C)cc1` (stereo unspecified) the Potency was active: 14.6 µM. In the case of `COc1ccc2[nH]c(=O)c(CN(Cc3ccccc3)Cc3nnnn3CC3CCCO3)cc2c1` (stereo unspecified), the Potency is reported as inconclusive [inhibitor, partial curve]. With `O=C(NCCc1csc(-c2cccc(F)c2)n1)c1ccc(Br)o1` the Potency was inconclusive [inhibitor, single point]. For `Cc1ccc(Cl)cc1NCc1nnc2n1CCCCC2`, the Potency was “inactive”. For `CC(C)(C)c1ccc(C(=O)Nc2cccnc2)cc1`, the Potency was inconclusive [inhibitor, single point]. In the case of `CCCCNC(=O)CC(=O)Nc1ccccc1C(=O)O`, the Potency is reported as “inactive”. With `Cc1n[nH]c(C)c1S(=O)(=O)N(CC(=O)NCc1ccccc1Cl)c1ccc(C(C)C)cc1` the Potency was active: 16.4 µM. With `Cn1c(=NC(=O)c2ccco2)sc2cccc(F)c21` the Potency was inconclusive [inhibitor, single point]. In the case of `CCOC(=O)c1c(C)c(C(=O)N2CCN(c3cccc(Cl)c3)CC2)c(C)n1C`, the Potency is reported as inconclusive [inhibitor, single point]. With `Clc1ccc(-c2cn3c(n2)CCC3)cc1` the Potency was inconclusive [inhibitor, partial curve]. With `COc1ccc2[nH]cc(C(=O)CNc3nc(C)cs3)c2c1` the Potency was inconclusive [inhibitor, single point]. With `COc1c(N2CCN(C(=S)NCc3ccccc3)C(C)C2)c(F)cc2c(=O)c(C(=O)O)cn(C3CC3)c12` (stereo unspecified) the Potency was active: 23.1 µM. In the case of `CCOc1ccc(C(=O)NCC(=O)OCC(=O)NC2CCCC2)cc1`, the Potency is reported as “inactive”. In the case of `CCN1CCN(CC(=O)Nc2ccc(S(=O)(=O)N3C(C)CCCC3C)cc2)CC1` (stereo unspecified), the Potency is reported as inconclusive [inhibitor, partial curve]. In the case of `CCCCC12CN3CC(C)(CN(C1)C31C(=O)N(C)c3ccc(C)cc31)C2=O` (stereo unspecified), the Potency is reported as inconclusive [inhibitor, partial curve]. In the case of `CCSc1ccc([C@@H]2[C@H]3C(=O)N(CC)C(=O)[C@H]3[C@]3(C(=O)OC)CCCCN23)cc1`, the Potency is reported as active: 23.1 µM. With `CCN(C(=O)Cn1c(=O)oc2cc(S(=O)(=O)N3CCCC3)ccc21)c1cccc(C)c1` the Potency was inconclusive [inhibitor, partial curve]. In the case of `C=CCOC(=O)C1=C[C@H](c2coc3ccccc3c2=O)[C@@H](CCCO)[C@H](OCC)O1`, the Potency is reported as “inactive”. With `O=C(CN1CCCC1c1cccs1)N1CCN(S(=O)(=O)c2ccccc2)CC1` (stereo unspecified) the Potency was “inactive”. For `CCOc1ccccc1CNC(=O)CCc1cn(Cc2ccc(Cl)cc2)c2ccccc12`, the Potency was active: 16.4 µM. In the case of `CC(=O)Nc1cccc(C(=O)OCN2C(=O)c3ccccc3C2=O)c1`, the Potency is reported as “inactive”. For `COc1ccccc1C(=O)NNC(=O)C(=O)Nc1ccc(C)c(Cl)c1`, the Potency was inconclusive [inhibitor, single point]. For `CC(NC(=O)c1cc(-c2ccc(Br)cc2)on1)c1ccccc1` (stereo unspecified), the Potency was inconclusive [inhibitor, partial curve, poor fit]. With `SCc1nc2ccccc2[nH]1` the Potency was active: 10 µM. For `CC1(C)CC(=O)c2cnc(N)nc2C1`, the Potency was inconclusive [inhibitor, single point]. With `N=c1sccn1CC(=O)N1N=C(c2ccc(Cl)cc2)CC1c1ccco1` (stereo unspecified) the Potency was active: 23.1 µM. For `C[C@H]1CN([C@@H](C)CO)C(=O)CCCn2nncc2CO[C@H]1CN(C)S(=O)(=O)c1ccc(F)cc1`, the Potency was “inactive”. In the case of `Cc1ccc(NC(=O)CN2C(=O)COc3ccc(S(=O)(=O)N4CCCCCC4)cc32)cc1C`, the Potency is reported as active: 14.6 µM. In the case of `COc1ccc(CCNCC(=O)Nc2ccc(C)c(S(=O)(=O)N(C)C)c2)cc1`, the Potency is reported as active: 4.61 µM.
